In PubChem BioAssay AID493208 (National Center for Advancing Translational Sciences (NCATS), 2011):
Hit rate of the full screen: of about 44,000 compounds, about 340 (0.77%) were called active. Another 5% or so got no clear call; they are omitted. Calls come from the whole dose curve; as a rule, active = well fitted inhibition curve with a large enough effect; inconclusive = small, poorly fitted or top-dose-only effect; inactive = flat fitted curve, though single readings scatter. The list shows a part of the results.

Assay: Acumen qHTS Assay for Inhibitors of the mTORC1 Signaling Pathway in MEF (Tsc2-/-, p53-/-) Cells: Sytravon;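 note: plate controls were DMSO for no effect and rapamycin for full effect; nearly all actives have a fitted effect of over 50% in size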
Details: phospho-rpS6 immunofluorescence/PI, 24 h; series mostly up to 38.3 µM; activity change, negative = inhibition: at the top concentration
Summary of the method: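 Immunofluorescence of rpS6 phosphorylation in Tsc2-/-, p53-/- MEFs after 24 h compound exposure, normalized to propidium iodide signal. Activity is expressed as % positive cells, thresholded with 7.5 nM rapamycin.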

Activity change, negative = inhibition, inactive:
Cc1nc(S(=O)(=O)N2CCN(c3ccc(Cl)cc3)CC2)cn1C 4.01%
Cc1nnc(SCc2cc(=O)c3ccccc3[nH]2)s1 -15.4%
CCOc1ccc(CCNC(=O)c2ccc(-c3nc(CSc4ccc(C)cc4)c(C)o3)cc2)cc1 0.143%
O=C(COc1ccccc1)Nc1sc2c(c1C(=O)Nc1ccccc1Cl)CCCCC2 9.63%
CCN(Cc1nc(-c2cccc(C)c2)no1)S(=O)(=O)c1ccc(C)cc1 -10.9%
COc1ccc(N(CC(=O)Nc2ccc(C)c(C)c2)S(=O)(=O)c2ccc(C)cc2)cc1OC 9.67%
Cc1cccc(C)c1NC(=O)CN1C(=O)CCSc2ccc(S(=O)(=O)N3CCCC3)cc21 -0.822%
COC(=O)c1cc(NC(=O)Nc2ccc3snnc3c2)cc(C(=O)OC)c1 -6.88%
Cc1ccc(NC(=O)C(=O)NCC(c2cccnc2)N2CCOCC2)cc1 (stereo not given) 8.55%
CC1CCN(C(=O)c2ccc3c(c2)N(Cc2ccccc2F)C(=O)c2ccccc2S3(=O)=O)CC1 -5.39%
COc1ccc(S(=O)(=O)n2nc(C)c(S(=O)(=O)N3CCCCC3)c2C)cc1 -1.55%
Cc1c(Cl)cccc1-n1ncc(C(=O)N2CCN(C)CC2)c1C1CCN(C(=O)OC(C)(C)C)CC1 -1.67%
COc1ccc(CNC(=O)Cn2nc(C)n3cccc3c2=O)cc1 3.42%
COc1ccc(-c2nc(SCC(=O)NC3CCCC3)c(-c3ccc(OC)cc3)[nH]2)cc1 -17.5%
COc1ccccc1N1CCN(C(=O)c2cc3c(=O)n(C)c4ccccc4c3s2)CC1 -5.83%
C=C(C)Cn1c(SCC(=O)Nc2ccccc2C)nc2sc3c(c2c1=O)CCCC3 5.09%
COc1ccccc1-c1noc(-c2ccc(N3CCOCC3)c([N+](=O)[O-])c2)n1 2.49%
CC(=O)c1ccc(N2CCN(c3ncnc4c3c(-c3ccccc3)cn4-c3ccc(C)c(Cl)c3)CC2)cc1 10.8%
CC(C)Cn1c(=O)c2ccccc2n2c(CCC(=O)N3CCN(c4cccc(Cl)c4)CC3)nnc12 -9.68%
COCCCN(Cc1ccco1)C(=O)c1cc2c(s1)-c1ccccc1OC2 -6.63%
COc1ccc(CCNC(=O)Cn2cc(C(=O)c3ccc(Cl)cc3)c(=O)c3ccc(C)nc32)cc1OC -4.76%
CCOC(=O)C1CCN(c2nc3c(S(=O)(=O)c4ccc(Br)cc4)nnn3c3ccsc23)CC1 -1.88%
FC(F)(F)c1cccc(-n2cc(-c3ccccc3)c3c(N4CCCCC4)ncnc32)c1 8.02%
CCCN(CCC)CCNC(=O)Cn1cnc2sc(C)c(S(=O)(=O)N3CCC(C)CC3)c2c1=O -1.61%
COc1ccccc1CNC(=O)CN1C(=O)CCc2cc(S(=O)(=O)N3CCCCC3)ccc21 12.8%
COc1ccc(C(=O)NCCn2cc(SCc3cccc(F)c3)c3ccccc32)cc1OC 5.21%
O=C(CSc1nc(-c2cccs2)nc2cc(=O)[nH]n12)Nc1ccccc1 0.383%
CCc1ccc(NC(=O)CC(c2cc(OC)c(OC)c(OC)c2)N2Cc3ccccc3C2=O)cc1 (stereo not given) 0.828%
COc1ccc(S(=O)(=O)N(CCc2ccccc2)CC(=O)NCc2ccccc2)cc1 -6.12%
COCCN1C(=O)c2oc3cc(C)cc(C)c3c(=O)c2C1c1cccc(O)c1 (stereo not given) -2.51%
COc1ccc(CNC(=O)c2cc3c(-c4ccc(Cl)cc4)nn(C)c3s2)cc1 -12.6%
CCOC(=O)c1cccc(NC(=O)Cn2nc3c(cc2=O)CCCC3)c1 0%
Cn1c(=O)n(C)c2cc(NS(=O)(=O)c3ccc(F)cc3)c(NCc3ccccc3)cc21 -21.6%
Cc1ccc(N2CC(C(=O)NCCS(=O)(=O)N3CCN(c4ccccc4)CC3)CC2=O)cc1 (stereo not given) 13%
Cc1ccc(-c2c(CN3CCN(c4cc(C)ccc4C)CC3)csc2C)cc1 -15.1%
Cc1c(C(=O)NC(C)c2ccccc2)sc2ncnc(N(C)C3CCCCC3)c12 (stereo not given) -6.65%
O=S(=O)(Nc1ccc(-c2ccc(N3CCCCC3)nn2)cc1)c1ccc(OC(F)(F)F)cc1 -7.94%
CCCn1cc(S(=O)(=O)c2cccc(Cl)c2)c(=O)c2cc(F)c(N3CCOCC3)cc21 -11.5%
CCN(CC)C(=O)CSc1nnc2ccc3ccccc3n12 4.52%
Cc1nn(-c2ccc(N3CCCCC3)nn2)c(C)c1CCC(=O)NCc1ccc(F)cc1 -5.17%
CCc1ccccc1NC(=O)CN1C(=O)CCn2nc(-c3cccn3C)cc21 7.22%
Cc1cccc(NC(=O)CSC2=Nc3ccccc3C3=NC(CCC(=O)NCc4ccco4)C(=O)N23)c1 (stereo not given) -13.5%
COc1cc(OC)c(NC(=O)Cn2ncn3c(cc4cc(C)ccc43)c2=O)cc1Cl -2.2%
COC(=O)c1sccc1S(=O)(=O)N(CC(=O)Nc1cccc(C)c1C)c1ccc(C)c(C)c1 -29.3%
COc1ccccc1CNC(=O)Cn1cc2c(n1)-c1c(oc(C(=O)N3CCOCC3)c1C)CC2 -6.05%
CC(C)CN(CCNC(=O)CCN1N=C(c2ccccc2)CCC1=O)CC(C)C 7.06%
COc1ccc2c(C)c(CC(=O)NCc3ccccc3Cl)c(=O)oc2c1OC 1.89%
Cc1ccc(-c2onc(C)c2C)cc1S(=O)(=O)Nc1ccccn1 -3.22%
CCc1ccccc1NC(=O)c1ccc2c(c1)CCCN2S(C)(=O)=O -5.36%
CCSc1nc2ccccc2c(OCc2ccc(Cl)cc2)c1C(=O)OC 8%
COc1ccc2c(c1)c1c(c(=O)n(CCc3ccccc3)c(=O)n1Cc1cccc(F)c1)n2C -2.05%
CN(C)S(=O)(=O)N1CCC(n2c(C(F)(F)F)nc3cccnc32)CC1 3.01%
COc1ccc(Cn2c(CO)cnc2SCc2ccc(C)cc2)cc1 -4.41%
CC(C)(C)OC(=O)N1CCC(c2c(C(=O)N3CCN(Cc4ccccc4)CC3)cnn2-c2cccc(Cl)c2)CC1 -0.362%
COc1ccc(CCNC(=O)CN(c2ccccc2)S(=O)(=O)N(C)C)cc1OC 4.54%
CCc1cccc(C)c1NC(=O)CSc1nc2ccccc2nc1Cc1ccccc1 -0.122%
Cc1ccc(NC(=O)c2oc3ccc(S(=O)(=O)N4CCC5(CC4)OCCO5)cc3c2C)cc1Cl -2.94%
CC(=O)N1CCC(N(CCCOC(C)C)C(=O)Nc2ccc(C)c(C)c2)CC1 4.82%
COc1ccc(-c2nc3cc(NC(=O)COc4ccccc4C)ccc3o2)cc1 2.07%
CCOC(=O)c1c(NC(=O)c2cc(-c3ccc(OC)c(OC)c3)on2)sc2c1CCCC2 -1.74%
